Laboratory results: patent US8541419B2, “Isotopically enriched pyrimidin-5-yl acetic acid derivatives as CRTH2 antagonists” (Actimis Pharmaceuticals, Inc., priority 2008, dated 2013)
Values joined by “and” are separate entries in the source; they are usually repeats but may differ in a detail not shown here. Equal entries are not always repeated. This continues a long series; more values of the same kind are listed elsewhere. Marks after values point to notes of the source that are not given here.

Assay: Pharmacokinetics in male Han Wistar rats after simultaneous intravenous administration
Type: in vivo
Conditions: IV
Excerpt: The pharmacokinetics and bioavailability of [4,6-bis([^2H6]dimethylamino)-2-(4-{[4-(trifluoromethyl)benzoyl]amino}benzyl)pyrimidin-5-yl]acetic acid (1) and [4,6-bisdimethylamino)-2-(4-{[4-(trifluoromethyl)benzoyl]amino}benzyl)pyrimidin-5-yl]acetic acid (“the undeuterated analog”) were compared in male Han Wistar rats after intravenous (“IV”) and oral (“PO”) administration.
The following additional acronyms and definitions are used in the study: • AUC0-∞—area under the plasma concentration time curve from time 0 to infinity • AUC0-t—area under the plasma concentration time curve from time 0 to the last quantifiable timepoint • AUMC—area under the first moment curve • CL—total plasma clearance • Cmax—maximum plasma concentration • MRT—mean residence time • PEG—polyethylene glycol • t½—elimination half-life • tmax—time of maximum plasma concentration • Vss—steady-state volume of distribution
Compound 1 (1.02 mg/kg) and the undeuterated analog (1.0 mg/kg) and were administered simultaneously as a solution in PEG 400:ethanol:water (40:10:50) both intravenously and orally (by gavage) to four male rats per dose route. The doses were equivalent on a molar basis. Blood samples were collected serially up to 48 h postdose. […] Noncompartmental pharmacokinetic parameters were calculated and the results compared statistically using paired t-tests, since the simultaneous administration of both compounds allows each rat to serve as its own control.

Plasma Concentrations (0.03 h, mean): 47,500 ng/mL and 94800 nM
Plasma Concentrations (0.25 h, mean): 7,120 ng/mL and 14200 nM
Plasma Concentrations (0.5 h, mean): 19,100^a ng/mL and 38100^a nM
Plasma Concentrations (1 h, mean): 1,610 ng/mL and 3210 nM
Plasma Concentrations (2 h, mean): 590 ng/mL and 1180 nM
Plasma Concentrations (4 h, mean): 189 ng/mL and 377 nM
Plasma Concentrations (6 h, mean): 116 ng/mL and 231 nM
Plasma Concentrations (8 h, individual rats): 128 nM and 345 nM and 176 nM and 23.9 nM
Plasma Concentrations (8 h, mean): 168 nM
Plasma Concentrations (24 h, mean): 10.0 nM
Plasma Concentrations (48 h, individual rats): <1.00 ng/mL and 2.01 nM and <1.99 nM
Plasma Concentrations (48 h, mean): 0.253 ng/mL and 0.503 nM
SMILES: CN(C)c1nc(Cc2ccc(NC(=O)c3ccc(C(F)(F)F)cc3)cc2)nc(N(C)C)c1CC(=O)O [Undeuterated Analog, reference compound]
Plasma Concentrations (0.03 h, individual rats): 136,000^a ng/mL and 15,800 ng/mL and 24,600 ng/mL and 13,700 ng/mL and 271,000^a nM and 31,500 nM and 49,100 nM and 27,300 nM
Plasma Concentrations (0.25 h, individual rats): 5,890 ng/mL and 7,660 ng/mL and 11,500 ng/mL and 3,430 ng/mL and 11,700 nM and 15,300 nM and 22,900 nM and 6,840 nM
Plasma Concentrations (0.5 h, individual rats): 3,430 ng/mL and 4,670 ng/mL and 5,510 ng/mL and 62,900 ng/mL and 6,840 nM and 9,310 nM and 11,000 nM and 125,000 nM
Plasma Concentrations (1 h, individual rats): 1,380 ng/mL and 2,290 ng/mL and 2,080 ng/mL and 681 ng/mL and 2,750 nM and 4,570 nM and 4,150 nM and 1,360 nM
Plasma Concentrations (2 h, individual rats): 901 ng/mL and 741 ng/mL and 128 ng/mL and 1,800 nM and 1,480 nM and 255 nM
Plasma Concentrations (4 h, individual rats): 175 ng/mL and 365 ng/mL and 170 ng/mL and 46.9 ng/mL and 349 nM and 728 nM and 339 nM and 93.5 nM
Plasma Concentrations (6 h, individual rats): 105 ng/mL and 253 ng/mL and 81.3 ng/mL and 24.2 ng/mL and 209 nM and 504 nM and 162 nM and 48.3 nM
Plasma Concentrations (24 h, individual rats): 23.9 nM and 9.53 nM and 6.56 nM and <1.99 nM
